Results on 96 molecules are retold here after PubChem BioAssay AID1159614 (National Center for Advancing Translational Sciences (NCATS), 2016).

Among all 45,000 compounds or so, about 65 (0.1%) were called active. Calls follow the shape of the dose curve; as a rule, active = well fitted activation curve with a large enough effect; inconclusive = small, poorly fitted or top-dose-only effect; inactive = no such curve, though single readings can be large or run the other way. The list shows a part of the results.

Chain of UniProt P54803 (P54803 whole entry, looked up): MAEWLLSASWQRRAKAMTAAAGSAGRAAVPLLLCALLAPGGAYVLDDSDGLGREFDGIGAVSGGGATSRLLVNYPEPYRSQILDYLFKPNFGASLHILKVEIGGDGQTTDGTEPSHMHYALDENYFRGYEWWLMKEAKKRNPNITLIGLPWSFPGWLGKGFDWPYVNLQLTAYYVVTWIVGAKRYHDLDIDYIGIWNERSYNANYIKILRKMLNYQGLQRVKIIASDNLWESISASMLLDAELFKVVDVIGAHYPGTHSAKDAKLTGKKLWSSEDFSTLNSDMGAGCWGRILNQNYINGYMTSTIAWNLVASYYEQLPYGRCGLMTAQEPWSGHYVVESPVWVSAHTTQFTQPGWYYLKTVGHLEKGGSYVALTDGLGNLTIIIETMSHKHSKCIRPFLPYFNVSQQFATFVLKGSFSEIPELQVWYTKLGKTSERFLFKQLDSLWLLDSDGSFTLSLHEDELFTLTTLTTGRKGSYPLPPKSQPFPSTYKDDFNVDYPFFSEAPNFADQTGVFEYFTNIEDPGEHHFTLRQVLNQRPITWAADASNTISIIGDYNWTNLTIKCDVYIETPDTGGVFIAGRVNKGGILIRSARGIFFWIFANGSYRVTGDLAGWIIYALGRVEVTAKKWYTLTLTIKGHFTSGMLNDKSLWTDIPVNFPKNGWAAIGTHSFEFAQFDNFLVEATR

The target in the experiment is Galactocerebrosidase (Homo sapiens) (UniProt P54803). Put plainly: A Novel Cell-Based Assay to Identify Small Molecules for B -Galactocerebrosidase. Also: 0% is about no effect; nearly all actives have a fitted effect of over 65% in size. To be noted: 145M-Twi-hGALC-G270D cells (Twitcher mouse brain line with human GALC G270D), HMU-beta-Gal fluorescence, 48 h; series mostly up to 57.5 µM; activation: at the top concentration. Summed up:
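Live 145M-Twi cells (Twitcher mouse brain-derived, GALC-null) stably expressing human GALC-G270D, with a wild-type GALC line, were compound-treated. Residual GALC activity was then read as fluorescence from 0.1 mM final HMU-β-gal at pH 5.2; higher signal means activation.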
For the molecule `COc1ccc(NC(=O)CSc2nc3c(oc4ccccc43)c(=O)n2Cc2ccco2)cc1Cl`, the “activation” value is inactive: -15.3%.
The value for `CC1CCN(S(=O)(=O)c2nnc(NC(=O)c3cccc(Cl)c3)s2)CC1` was inactive: -20.5%; that for `Cc1ccc(CCNc2ncnc3onc(-c4ccc(Cl)cc4)c23)cc1` was inactive: -10.3%.
On to `COc1ccc(CNC(=O)CN2C(=O)CSc3ccc(S(=O)(=O)N4CCC(C)CC4)cc32)cc1`, for which the “activation” value was inactive: -17.5%.
The value for `COc1ccc(/C=C/C(=O)Nc2nc(-c3cccs3)ns2)cc1` was inactive: -8.22%; that for `COc1ccc(OCC(O)Cn2c(NCCO)nc3c2c(=O)n(C)c(=O)n3C)cc1` (stereo unspecified) was inactive: -30.4%; that for `Cc1nn(CC(=O)N2CCN(c3ccc(Cl)cc3)CC2)c(=O)c2cccn12` was inactive: -11.5%.
The value for `Cc1csc2nc(COc3cccc(NC(=O)c4ccccc4F)c3)cc(=O)n12` was inactive: -4.44%; that for `CCN(CC)CCCNc1ncnc2c1cnn2-c1ccc(C)c(C)c1` was inactive: -11.8%; that for `CCOC(=O)CSc1nc2c(sc3ccccc32)c(=O)n1CCO` was inactive: -18.1%.
The value for `CC(Cc1ccccc1)(NC(=O)CN)c1ccccc1` (stereo unspecified) was inactive: -6.63%; that for `CCOc1ccc(NS(=O)(=O)c2ccc3c(c2)CCCN3C(=O)C2CCC2)cc1` was inactive: -13.7%; that for `Cc1ccc(NC(=O)CSc2cn(CC(=O)N3CCCC3)c3ccccc23)cc1Cl` was inactive: -2.47%.
Regarding `COc1ccccc1CNC(=O)c1cn(C)c2ccc(S(=O)(=O)N(C)C3CCCCC3)cc2c1=O`, the “activation” value was inactive: -12.2%.
The value for `COc1ccc(NCc2cccn2-c2nnc(N3CCCCC3)s2)cc1OC` was inactive: -18.9%; that for `Cc1cc(C)c(NC(=O)C2CCN(c3nn4c(=O)cc(C)nc4s3)CC2)c(C)c1` was inactive: -12.3%.
The value for `Cc1ccc2c(=O)cc(C(=O)Nc3ccc(S(=O)(=O)Nc4ncccn4)cc3)oc2c1C` was inactive: -16.5%; that for `Cc1ccc2nc(COc3ccccc3NC(=O)c3ccc(F)cc3)cc(=O)n2c1` was inactive: 2.44%; that for `O=C(CSc1nc2c([nH]c3ccccc32)c(=O)n1-c1ccc(Cl)cc1)c1ccccc1` was inactive: -2.32%.
The value for `Cc1cc(C)cc(NC(=O)Cn2cc(C(=O)C3CCCCC3)c3ccccc32)c1` was inactive: -19.1%; that for `Cc1ccc(-n2c(=O)c3c(c4cc(C)ccc4n3C)n(CC(=O)N3CCCC3)c2=O)cc1` was inactive: -13.8%.
For `CCOc1ccc(NC(=O)c2c(NC(=O)Cc3ccccc3)sc3c2CCCCC3)cc1`, the “activation” value is inactive: -0.496%.
`O=C(CSC1=Nc2ccccc2N=C(c2ccc(F)cc2)C1)Nc1ccccc1`: the “activation” value was inactive: -18.6%.
Then `O=C(Nc1cnc(N2CCN(c3ccccc3)CC2)c(C(=O)O)c1)c1cccs1`, with inactive: 24.4%.
The value for `CN1CCc2c(sc3c2C(=O)NC(c2ccc(C(C)(C)C)cc2)N3)C1` (stereo unspecified) was inactive: -3.37%.
On to `Cc1cccc(-c2noc(-c3ccc(N4CCOCC4)c([N+](=O)[O-])c3)n2)c1`, for which the “activation” value was inactive: -21.5%.
The value for `CC1CCN(S(=O)(=O)c2ccc3c(ccc(=O)n3CC(=O)Nc3cccc(F)c3)c2)CC1` was inactive: -7.42%; that for `Cc1ccc(NC(=O)c2cc(S(=O)(=O)NCCc3ccc(Cl)cc3)ccc2F)cc1` was inactive: -9.43%.
Then `CC(C)(C)C1CCc2oc3ccc(NS(=O)(=O)c4ccc(C(=O)O)cc4)cc3c2C1` (stereo unspecified), with inactive: -17.9%; and `COc1ccc(Cn2c(SCC(=O)N(C)Cc3ccccc3)nc3ccccc32)cc1`, with inactive: -16.1%; and `Cc1ccc(NC(=O)Cn2c(=O)nc(-c3ccccc3)c3ccccc32)cc1F`, with inactive: 0.209%.
The value for `COc1ccc(CCNc2ncnc3c2cnn3-c2cc(Cl)ccc2C)cc1` was inactive: -3.27%; that for `COc1ccc(C2N=C(N)Nc3nc4ccccc4n32)cc1` (stereo unspecified) was inactive: -5.72%; that for `CCOC(=O)C1CCN(c2nc3c(S(=O)(=O)c4ccc(C)c(C)c4)nnn3c3ccc(Cl)cc23)CC1` was inactive: 7.85%.
Regarding `CC1=C(C(=O)N2CCN(c3cccc(Cl)c3)CC2)C2(CCCCC2)OC1=O`, the “activation” value is inactive: -13.8%.
The value for `CC1CCCCN1C(=O)c1cc(-c2ccc(Br)cc2)on1` (stereo unspecified) was inactive: -10.9%; that for `COc1ccc(OC)c(C2CC(=O)Nc3c2c(=O)[nH]c2ncnn32)c1` (stereo unspecified) was inactive: -8.36%; that for `COc1ccc(C2NC(=O)N(C)C3=C2C(=O)N(c2ccc(C(=O)O)cc2)C3)cc1` (stereo unspecified) was inactive: 11.2%.
The value for `CCOC(=O)c1ccc(CN(Cc2ccc(F)cc2)S(=O)(=O)c2ccc(F)c(C(=O)Nc3c(C)cccc3C)c2)cc1` was inactive: -17%; that for `CCc1ccc(C2CC(=O)c3c([nH]c(C(=O)OC4CCCC4)c3C)C2)cc1` (stereo unspecified) was inactive: -14.1%; that for `COc1cccc(-c2nc(CS(=O)(=O)CC(=O)N3CCN(c4cc(C)ccc4C)CC3)c(C)o2)c1` was inactive: -9.35%.
As to `CSc1ncc(C(=O)NCc2ccccc2F)c(-c2ccccc2)n1`, the “activation” value is inactive: -2.49%.
The value for `Cc1ccc(C)c(N2CCN(S(=O)(=O)c3ccc4c(c3)C(C(C)C)C(=O)N4)CC2)c1` (stereo unspecified) was inactive: -24.6%; that for `CCCc1ccc(OCC(=O)Nc2sc(C(=O)OCC)c(C)c2C(=O)OCC)cc1` was inactive: -7.74%.
The value for `CCc1ccccc1NS(=O)(=O)c1ccc2[nH]cc(C(=O)N(CC)Cc3ccccc3)c(=O)c2c1` was inactive: -5.44%; that for `COc1ccc(S(=O)(=O)Nc2c(C)nc3nc[nH]n3c2=O)cc1` was inactive: -9.09%; that for `Cc1ccc2c(CNCc3ccc(C)o3)c(C(=O)O)n(Cc3ccccc3C)c2c1` was inactive: -0.402%.
The value for `O=[N+]([O-])c1cccc(S(=O)(=O)NCCNS(=O)(=O)c2cccc([N+](=O)[O-])c2)c1` was inactive: -16.6%.
With `CCOc1ccc(NC(=O)Cn2c(=O)n(CCCCCC(=O)NCc3ccccc3)c(=O)c3sccc32)cc1`, the “activation” value is inactive: -9.93%.
The value for `CCc1ccc2occ(CC(=O)Nc3c(C(=O)c4ccc(C)cc4)oc4ccccc34)c2c1` was inactive: -18.1%; that for `Cc1ccc(S(=O)(=O)n2nc(-c3ccc(Cl)cc3)nc2NCc2ccc(F)cc2)cc1` was inactive: -19.4%; that for `CC(=O)N1CCCc2cc(S(=O)(=O)N3CCCC(C(=O)N4CCN(c5ccccc5)CC4)C3)ccc21` (stereo unspecified) was inactive: -9.54%.
Then `COc1ccc(CNC(=O)c2cc3cc(OC)ccc3oc2=O)cc1`, with inactive: -6.72%; and `Cc1cc(C)c2c(CC(=O)Nc3ccc(S(=O)(=O)Nc4nc(C)cc(C)n4)cc3)coc2c1`, with inactive: -11.1%; and `Cc1cc(S(=O)(=O)C(CNC(=O)c2ccc(F)c(F)c2)c2cccs2)ccc1F` (stereo unspecified), with inactive: 1.34%.
The value for `Cc1ccc(-n2ncc3c(Nc4cccc(C(=O)O)c4)ncnc32)cc1` was inactive: -35.1%; that for `CCCSCCCNC(=O)C1CCN(c2nc3ccccc3nc2C(F)(F)F)CC1` was inactive: -14.4%.
For the molecule `Cc1ccc(NC(=O)C(=O)NCC(c2cccnc2)N2CCN(Cc3ccccc3)CC2)cc1F` (stereo unspecified), the “activation” value was inactive: -12.2%.
Then `CCCCn1cnc2cc(NCc3ccccc3Cl)ccc21`, with inactive: 1.4%; and `Cc1cccc(/C=C/c2onc(C)c2S(=O)(=O)N2CCC(C(=O)N3CCCCC3)CC2)c1`, with inactive: -18.6%.
Then `COc1ccc(-c2[nH]c(-c3ccc(Cl)cc3)nc2SCC(=O)NCC2CCCO2)cc1` (stereo unspecified), with inactive: -16%; and `O=S(=O)(NCCc1csc2nc(-c3ccccc3)nn12)c1cc(F)ccc1F`, with inactive: -10.1%.
The value for `Cc1ccc(-c2ccc(=O)n(CC(=O)NCCc3ccccc3)n2)cc1` was inactive: 7.18%; that for `COc1ccc(-c2csc3ncnc(Nc4cccc(OC)c4)c23)cc1` was inactive: -16.7%; that for `CCOCCCNC(=O)c1ccc(-n2c(-c3ccccc3)cc3c2CCC(C)C3)cc1` (stereo unspecified) was inactive: 13.2%.
Take `CSc1cccc(NC(=O)Nc2ccccc2OCc2cc(=O)n3cc(C)ccc3n2)c1`: the “activation” value was inactive: -10%.
The value for `O=C(Cc1cccs1)NC1CC(=O)N(c2ccc(F)cc2)C1` (stereo unspecified) was inactive: -5.73%; that for `Cc1oc(-c2ccc(C(=O)NCc3ccccc3)cc2)nc1CN1CCc2ccccc21` was inactive: -10.6%; that for `COc1ccc(-c2nc3ccccc3s2)cc1NC(=O)c1ccccc1F` was inactive: 6.58%.
Then `O=C(NCc1ccc(Cl)cc1)NCc1noc2ccccc12`, with inactive: -12.8%.
The value for `COc1ccc(NC(=O)CCNS(=O)(=O)c2ccc3c(c2)CCCC(=O)N3)cc1Cl` was inactive: -19.9%; that for `Cc1cc(N)c2cc(NC(=O)Nc3ccc4nc(C)cc(N)c4c3)ccc2n1` was inactive: -9.56%; that for `CCc1ccc(S(=O)(=O)Nc2ccc3c(c2)n(C)c(=O)c(=O)n3C)cc1` was inactive: -9%.
Consider `CCC(=O)N1CCc2cc(Br)cc(S(=O)(=O)CCC(=O)N3CCN(c4cccc(C)c4)C(C)C3)c21` (stereo unspecified), for which the “activation” value is inactive: -10.2%.
Then `COc1ccc(C(=O)Nc2ccc3nc(SCC(=O)N4CCc5ccccc54)sc3c2)cc1`, with inactive: -22.4%; and `Cc1ccc2c(c1)C(c1ccc(F)cc1)N(C(=O)c1ccc(S(=O)(=O)N3CCCCC3)cc1)CC(=O)N2` (stereo unspecified), with inactive: -13%.
The value for `Cc1ccc(S(=O)(=O)c2nnn(-c3ccc(F)c(Cl)c3)c2N)cc1` was inactive: -18.3%; that for `COC(=O)c1ccccc1NC(=O)C1=CC(c2cccs2)=NS(=O)(=O)N1C` was inactive: -8.48%; that for `Cc1cc(OCC(=O)Nc2cc(-c3nc4ncccc4o3)ccc2C)ccc1Cl` was inactive: -24.7%.
Then `COc1ccc(-n2nc3cc(C)c(NC(=O)c4ccc(-c5ccc(Cl)cc5)o4)cc3n2)cc1`, with inactive: -6.79%; and `COc1ccc(CCNC(=O)c2nc(-c3ccc(Cl)cc3)n3c2CCCCC3)c(OC)c1`, with inactive: -19.8%; and `COc1ccc(OCc2ccc(-c3nc(C#N)c(NC(C)c4ccccc4)o3)o2)cc1` (stereo unspecified), with inactive: -13.4%.
Consider `Cc1nn(CC(=O)Nc2ccc(OC(F)(F)F)cc2)c(=O)c2c(C)n(-c3ccc(Cl)cc3)nc12`, for which the “activation” value was inactive: 3.94%.
The value for `CCOc1ccc2nc(N3CCCC(C(=O)NCCc4ccc(OCC)c(OCC)c4)C3)sc2c1` (stereo unspecified) was inactive: -17.3%; that for `Cc1cccc(C)c1Nc1c(-c2ccccn2)nc2c(C)cccn12` was inactive: -4.76%; that for `Cc1cc(Cl)ccc1NC(=O)Cc1ccc(NC(=O)N2CCCCc3ccccc32)cc1` was inactive: -9.05%.
Then `CCCCCC1Nc2cc(C(F)(F)F)c(S(N)(=O)=O)cc2S(=O)(=O)N1` (stereo unspecified), with inactive: -17.3%; and `Cc1ccc(Nc2c(-c3ccc(C)s3)nc3ccccn23)cc1`, with inactive: -5.01%.
Then `Cc1ccc(-c2cc3ncc4c(n3n2)-c2cc(F)ccc2OC4)cc1`, with inactive: -4.73%; and `CCOC(=O)CNC(=O)N1CCCN(S(=O)(=O)c2ccc3c(ccn3CC)c2)CC1`, with inactive: -17.3%; and `COc1ccc(C)c2sc(N3CCN(C(=O)c4cccc(F)c4)CC3)nc12`, with inactive: -10.7%.
Turning to `CCOc1ccccc1NC(=O)N(Cc1ccc(C)o1)C1CCN(C(C)=O)CC1`, the “activation” value is inactive: -1.18%.
Then `CCc1nn2c(=O)cc(COC(=O)c3ccccc3)nc2s1`, with inactive: -19.4%; and `O=C(c1ccccc1Br)N(Cc1ccco1)Cc1ccco1`, with inactive: 3.65%; and `CCn1c(SCc2c(F)cccc2Cl)nc(=O)c2c(C(=O)OC)cc(C3CC3)nc21`, with inactive: -9.12%.
For `O=C(CSc1nnc(-c2ccc(Cl)cc2)o1)c1ccc([N+](=O)[O-])cc1`, the “activation” value is inactive: -24.9%.
